# From PubChem BioAssay AID1458 (National Center for Advancing Translational Sciences (NCATS), 2008)
# “And” between values parts separate entries of the source, which are not always exact repeats. Equal entries are not always repeated. The whole screen tested about 210,000 compounds, of which about 5,900 (2.8%) were called active. The shares of active, inactive and inconclusive entries below differ from those in the screen. The call rests on the fitted dose curve; in most records, active means well fitted activation curve with a large enough effect; inconclusive means small, poorly fitted or top-dose-only effect; inactive means no such curve, though single readings can be large or run the other way. Potencies beside an inconclusive call are fits to weak or partial responses and may not hold up.
# Assay: qHTS Assay for Enhancers of SMN2 Splice Variant Expression; further: nearly all actives have a fitted effect of over 55% in size
# Conditions: HEK293 SMN2-luciferase splicing reporter, luminescence, 30-36 h; series mostly up to 46.1 µM
# Method in brief: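 HEK293 cells carry an SMN2 […]–luciferase reporter in which exon 7 inclusion puts luciferase in frame. Cells were plated 10-12 h before compound addition, then incubated 30-36 h at 37C. ONE-Glo luminescence was read; sodium butyrate at 4.5 mM final served as control.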
# Potency means the concentration at half of the fitted maximal effect; tags describe the fitted curve by direction and shape.
row,Structure (SMILES),Potency
1,O=C(c1c(Cl)nc2sccn12)N(C(=O)c1c(Cl)nc2sccn12)c1ccc(Cl)cn1,active: 12.6 µM
2,Cc1ccc(NC(=S)NNc2ncc(C(F)(F)F)cc2Cl)cc1,inactive
3,Cc1nnc(NC(=O)/C=C/c2ccco2)s1,"inconclusive: 15.8 µM [activator, partial curve]"
4,CN1CCN(C(=O)Nc2cccc(Cl)c2)c2cccnc21,"inconclusive: 12.6 µM [activator, partial curve]"
5,COc1ccc(S(=O)(=O)Nc2cc(C)c(O)c(S(=O)(=O)c3ccccc3)c2)cc1,"inconclusive: 0.0447 µM [activator, full curve, poor fit]"
6,Cc1nn(-c2ccccc2)c(C)c1-c1cc(C(=O)N/N=C/c2cccnc2)[nH]n1,"inconclusive: 12.6 µM [activator, single point]"
7,COCc1nnc(NC(=O)c2ccc3c(c2)OCO3)s1,active: 14.1 µM
8,O=C(Cc1cccs1)Nc1nc2c(s1)CCCC2,active: 12.6 µM
9,Cc1ccc(C)c(N2CCN(C(=O)CN(C)S(=O)(=O)c3ccc4c(c3)CCC(=O)N4)CC2)c1,inactive
10,CCOc1cccc(-c2nc3cc(C)ccc3o2)c1,active: 12.6 µM
11,O=C(Nc1ccccc1)Nc1ccccc1,"inconclusive: 7.94 µM [activator, partial curve, poor fit] and inconclusive: 17.8 µM [activator, single point]"
12,Cc1cc(C)c2oc(-c3ccc(C)c(NC(=S)NC(=O)c4cccs4)c3)nc2c1,inactive
13,CCOC(=O)CCS(=O)(=O)c1nc(-c2ccccc2)cc(C(F)(F)F)n1,"inconclusive: 35.5 µM [activator, single point]"
14,Cc1ccccc1-c1nnc(SCC(=O)N2CCCCC2)o1,"inconclusive: 11.2 µM [activator, partial curve, poor fit]"
15,CCOCCCNC(=S)NCCc1ccccc1,"inconclusive: 35.5 µM [activator, single point]"
16,CC(=O)Nc1ccc2c(c1)n(C)c(=O)n2C,"inconclusive: 8.91 µM [activator, partial curve, poor fit]"
17,Cc1ccc(S(=O)(=O)N2CCN(C(=O)CSC3CCCC3)CC2)c(C)c1,inactive
18,Cc1nc(-c2ccc3c(c2)OCO3)cs1,"inconclusive: 35.5 µM [activator, single point]"
19,CCn1cc(C(=O)OCC(=O)Nc2ccc(S(=O)(=O)N3CCCC3)cc2)c(=O)c2ccc(C)nc21,"inconclusive: 0.0028 µM [activator, full curve, poor fit]"
20,COc1ccc(OCCn2c(=O)sc3ccccc32)cc1,"inconclusive: 14.1 µM [activator, single point]"
21,COc1cc(OC)c(NC(=O)c2c3c(nn2C)-c2ccccc2SC3)cc1Cl,inactive
22,CNc1nn(-c2cccc(Cl)c2)nc1N,"inconclusive: 35.5 µM [activator, single point]"
23,CC(=O)N1N=C(c2ccc(C)cc2)CC1c1cn(-c2ccccc2)nc1-c1cccs1 (stereo not drawn),inactive
24,Cc1csc(NC(=O)c2cccs2)n1,active: 11.2 µM

row,Structure (SMILES),Potency
1,COCc1nnc(NC(=O)C(C)C)s1,"inconclusive: 3.98 µM [activator, full curve, poor fit]"
2,CCn1c(SCC(=O)Nc2cc(NC(C)=O)ccc2OC)nnc1-c1ccncc1,"inconclusive: 3.55 µM [activator, partial curve]"
3,COc1cccc(-c2nc(=S)c3c(n2Cc2ccco2)CCCC3)c1,"inconclusive: 0.02 µM [activator, full curve, poor fit]"
4,O=C(Nc1ccccc1Cl)c1cc2c(-c3ccccc3)nn(-c3ccccc3)c2s1,inactive
5,CCOCC(=O)N1CCCC(C(=O)OCC)C1 (stereo not drawn),inactive
6,CCn1c(SC)nnc1-c1nnc(SC)n1CC,"inconclusive: 5.62 µM [activator, single point]"
7,COc1ccc2c(c1OC)C(=O)OC2Nc1nc(-c2cc3ccccc3oc2=O)cs1 (stereo not drawn),active: 2.24 µM
8,S=C(NCC1CCCCC1)Nc1ccc(Oc2ccccc2)cc1,inactive
9,CCc1nn2c(N3CCOCC3)cc(C)nc2c1-c1ccc(F)cc1,"inconclusive: 35.5 µM [activator, single point]"
10,COC(=O)c1ccc(C(NC(=O)OCc2ccccc2)/C(=C/[C@@H](C)C(=O)NCC2CC2)c2cccnc2)cc1 (stereo partly drawn),inactive
11,Cc1cccc(NC(=O)c2ccc(OCC3CCCO3)cc2)c1C (stereo not drawn),"inconclusive: 12.6 µM [activator, partial curve, poor fit]"
12,CC(C)(C)c1cc(NC(=O)c2cc(F)c(F)c(F)c2F)no1,"inconclusive: 35.5 µM [activator, single point]"
13,C(=N\N1CCN(Cc2cccc3ccccc23)CC1)/c1ccco1,inactive
14,CCCN(CCC)CC(O)Cn1cc(/C=C/C(=O)c2cccs2)c2ccccc21 (stereo not drawn),inactive
15,Cn1c(=O)[nH]c(=O)c2c1nc(N1CCN(c3cccc(Cl)c3)CC1)n2CCCc1ccccc1,"inconclusive: 3.16 µM [activator, single point]"
16,COc1cc(SC)ccc1C(=O)Nc1ccon1,"inconclusive: 11.2 µM [activator, partial curve]"
17,CCOc1ccc(C(=O)N2CCCC2)cc1,inactive
18,Brc1csc(/C=N/Nc2nc3ccccc3s2)c1,active: 2.82 µM
19,Cc1ccc(C(=O)O)cc1NC(=O)Nc1ccc2c(c1)OCO2,"inconclusive: 8.91 µM [activator, partial curve]"
20,COc1cc(NC(=O)c2cccs2)ccc1NC(=O)c1ccco1,active: 11.2 µM
21,N/C(=N\OC(=O)c1ccc2c(c1)OCO2)c1ccc(Cl)cc1,"inconclusive: 0.251 µM [activator, partial curve]"
22,Cc1c(C(=O)O)oc2ccc(S(=O)(=O)NCc3ccccc3)cc12,inactive
23,COc1cc(OC)c(NS(=O)(=O)c2cc(C(=O)OC(C)C(=O)NC3CC3)c(Cl)cc2Cl)cc1Cl (stereo not drawn),"inconclusive: 0.251 µM [activator, full curve, poor fit]"
24,Cc1ccc2c(Cl)c(C(=O)Nc3ccc4c(c3)OCO4)sc2c1,"inconclusive: 2.24 µM [activator, full curve]"
